# Test results as given in the supplement of paper PMC4466236.
# The full ranking holds about 33,000 sequences; the median of “E-score (dimensionless, -0.5 to 0.5)” is about -0.058, and the highest 2% start at about 0.35. The list shows a part of the results.
# Tested on: MvaT
# Assay: PBM 8-mer E-score (mean of HK and ME arrays) (E-score (dimensionless, -0.5 to 0.5)); higher = stronger relative binding preference; most listed sequences are background and not binding sites
# Experimental: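 Protein binding microarray: GST-tagged full-length MvaT (P. aeruginosa PAO1) bound to two universal double-stranded 60-mer arrays (ME and HK), each with a constant 25-mer primer and a variable 35-mer region covering all 8-mers. The 8-mer E-score (rank-based, range -0.5 to 0.5, >0.45 = specific binding) is the mean of the two arrays.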
row,Sequence,PBM 8-mer E-score
1,AAAGAAAA,0.215
2,GTAATAGA,0.164
3,ATTCTAAC,0.154
4,GCTTACGA,-0.023
5,CAATAGCA,0.114
6,ACTACGCC,-0.129
7,ATAACATC,0.302
8,AATTTACA,0.269
9,AGTATACG,0.185
10,CCCCTTAC,-0.254
11,TGCGCCAA,0.114
12,CGGGGTCA,-0.246
13,CCTGGGAC,-0.214
14,ACTGGGTC,-0.145
15,TGGCGCCA,-0.352
16,GGAAAGAA,0.0435
17,ATGGTATA,0.249
18,CCCTCCCA,-0.169
19,AACAAGTA,0.343
20,AACCTCTG,-0.274
21,AGACAGCG,-0.185
22,GTCGGTAA,-0.0268
23,GTTGCGAA,-0.00171
24,TCGGGCAA,-0.0605
25,AGTCGGCC,-0.23

row,Sequence,PBM 8-mer E-score
1,GGGTTTAA,0.187
2,ATATAAAC,0.433
3,CGCACGGC,-0.246
4,ATGATTAC,0.206
5,GAGGAATC,-0.0683
6,AATAACCA,0.265
7,AATACAAC,0.316
8,CTTACCAC,-0.14
9,TAGATATA,0.368
10,ACATTCAG,0.127
11,AGCCAGTA,-0.0101
12,AAATAAAA,0.419
13,AAACGAGT,0.0937
14,AACGATGC,-0.0999
15,AGTTTCAA,0.177
16,CTCAATGC,-0.14
17,ATGTTGAA,0.196
18,CCGTGCCC,-0.184
19,AGCTCCTC,-0.303
20,TCCACGAA,-0.0307
21,CATGAGGA,-0.201
22,CCCCACGA,-0.139
23,GACATTAA,0.222
24,CGTGAAAC,-0.0856
25,ACAATGAT,0.234

row,Sequence,PBM 8-mer E-score
1,GTGAGGAA,-0.0156
2,ACGCAAAT,0.0432
3,CGACTTGC,-0.238
4,TACAGCTA,-0.123
5,ACAGGATC,-0.123
6,ACGTTTAG,-0.00724
7,GCCAATTA,0.0866
8,CGTGTGTC,-0.228
9,ATGCTTCG,-0.069
10,CGGGACTA,-0.0357
11,AAAATATG,0.251
12,GAAACGAA,0.0408
13,CTCACGTC,-0.216
14,CGAAGGGC,-0.24
15,CCCAATTA,0.271
16,CCACATGA,-0.161
17,GAAGTGAC,0.0462
18,AGGAAACT,-0.0294
19,ACCCTATA,0.129
20,ATTCCATC,-0.0422
21,CTTATCAC,0.0776
22,GGATGCGA,-0.256
23,GGCCTTAC,-0.0545
24,CGGGCGGA,-0.237
25,AAAGATAA,0.274

row,Sequence,PBM 8-mer E-score
1,CAGGACCG,-0.234
2,CTACAGGA,-0.126
3,AAATGATC,0.0521
4,CGGGCTCC,-0.173
5,ACGTATAT,0.29
6,CCCGAAAC,-0.161
7,TGCCGACA,-0.122
8,CCATTGTA,0.134
9,TACAAGCA,0.0373
10,AATGCACT,0.0117
11,TGATGCAA,0.036
12,GACAAACA,0.174
13,ATCTGGTC,-0.0486
14,GTCTAGAA,-0.163
15,TATTTAGA,0.308
16,CTGAAGGC,-0.394
17,CATCCCCG,-0.178
18,CAAAATTC,0.0693
19,ACCCGGAA,-0.0434
20,GAAAGTCA,-0.0606
21,AAAGCCCA,-0.231
22,AAGAATTA,0.295
23,ATGATAGC,-0.0294
24,TCACGAGA,-0.131
25,CACTCCTG,-0.121

row,Sequence,PBM 8-mer E-score
1,ACTGAAGC,-0.224
2,ACAATAAT,0.401
3,CGACCTCG,-0.227
4,AGCCGCAA,-0.0521
5,CCGCTTTC,-0.181
6,GCACCAGA,-0.178
7,ATAGTCAG,0.0889
8,CAAACGCG,-0.0844
9,GGGCTTCA,-0.28
10,ATGCAAAG,0.085
11,GCGTTAGA,-0.0834
12,AATTAACG,0.28
13,ATTACCTC,0.00993
14,AACGCGAC,-0.0208
15,ATACGGTG,-0.181
16,AACTACCT,0.144
17,GCGCAACA,0.064
18,CCGGTAAC,-0.0396
19,ACGACGTA,-0.0929
20,CTAAAGCC,-0.122
21,ATAAGTTG,0.342
22,ACGATGCC,-0.0988
23,ATCAACAA,0.217
24,GTACGTGA,0.0149
25,AGGAAGTG,-0.0167

row,Sequence,PBM 8-mer E-score
1,CCGACACC,-0.265
2,ATGAAATG,0.155
3,GGCTGAAC,-0.0977
4,GCGTCTTA,0.0293
5,AGGACGAG,-0.247
6,ACTCATAT,0.261
7,AAAGTGGA,-0.185
8,CGCGCTTA,0.0087
9,CATTTACA,0.339
10,CTAGTTTA,0.306
11,GAGAGGCC,-0.32
12,AATTGTGT,0.251
13,GGTTGATA,0.124
14,ACCCTCTG,-0.224
15,CTTTGCGA,-0.129
16,AAGGCCTA,-0.149
17,ACTTGACG,-0.027
18,GCATGTTA,0.182
19,GAAAGGTC,-0.213
20,CGTGTTAG,-0.118
21,AACTGGCA,0.0733
22,CCGCATGC,-0.119
23,CCCAGCAG,-0.187
24,CGGTACCC,-0.26
25,AACAATGG,0.132

row,Sequence,PBM 8-mer E-score
1,GCGAATAC,0.0443
2,AACTCAAT,0.216
3,CCAGGCCA,-0.316
4,AATGTTCG,0.0127
5,TAGACAAA,0.115
6,CTGCATAC,0.0252
7,ATACTTTA,0.343
8,ATCTCTAG,-0.00763
9,CCGTCCCC,-0.319
10,AAACGACT,0.132
11,CTATCATA,0.226
12,CTGTTCAA,-0.0354
13,CACGCTTC,-0.248
14,CCCATTTC,-0.0307
15,GTGCGCTA,-0.186
16,AAATAGCT,0.11
17,CAAAGGCA,-0.255
18,TCGTCCAA,-0.12
19,ATGGGAAT,0.16
20,GCATGCCA,-0.156
21,CAGCATCA,-0.0605
22,GCCATTTA,0.134
23,TATTTTGA,0.259
24,ACTATACT,0.228
25,TTCCCCAA,-0.0342

row,Sequence,PBM 8-mer E-score
1,CAAGTTAA,0.332
2,AATCGCAG,-0.122
3,AATATCGG,0.237
4,GTTGCCAA,0.0204
5,CGGTCTGA,-0.16
6,AAGCAGCA,-0.0495
7,ATTAGTCA,0.226
8,ATTCTGGA,0.0264
9,CGAGGAAC,-0.169
10,AGAAATGC,0.0601
11,ACTATTAA,0.411
12,CAGTTGGC,-0.199
13,ACGCGATA,0.139
14,GGCCATTA,0.0399
15,CGTGTACC,-0.149
16,CACATACG,-0.0645
17,AATGGAGT,-0.091
18,ACCTAGCT,-0.0871
19,ATGTCCTG,-0.157
20,AAAATCAT,0.0877
21,GACCACCA,-0.109
22,ATTGGATG,0.131
23,AGGTCTTC,-0.204
24,GATCTTTA,0.13
25,AAACCCGG,-0.224

row,Sequence,PBM 8-mer E-score
1,GTGCCCCA,-0.101
2,AATTTCTA,0.175
3,CAGATAAA,0.112
4,GGGCGATA,-0.146
5,TCAGACAA,-0.126
6,AAGGGCTA,-0.144
7,CGAGGATC,-0.201
8,GGGTGACC,-0.231
9,CCTGGGAG,-0.293
10,GCGATGCA,-0.183
11,GAAGATCA,0.0645
12,AACGTTAC,0.101
13,AACTATAC,0.227
14,TATCCGAA,0.115
15,GAGAGCCA,-0.262
16,CCGGGTTC,-0.185
17,GCCAGGTA,-0.151
18,CCAGGCTC,-0.25
19,AAGATCAC,-0.153
20,CGAACAGA,0.106
21,ACCGACAT,0.0669
22,GTCGCGAA,-0.262
23,ACCAAACC,0.102
24,GTCTATGA,0.0453
25,CCGGCAAG,-0.227

row,Sequence,PBM 8-mer E-score
1,AAATATTG,0.306
2,AATGATTA,0.272
3,AAGGATCC,-0.244
4,GGCGACAC,-0.0493
5,CGTCTCGA,-0.328
6,CACCGTTA,0.0907
7,AGGCTAAA,-0.0289
8,AAGGATGT,0.101
9,GGCGGGTA,-0.104
10,AGTTCATC,0.06
11,CAAAACAA,0.165
12,AGGCGCTA,-0.3
13,CCGCCCAC,-0.254
14,CACTCATG,-0.225
15,CTTGCACC,-0.0295
16,ACGCACAG,-0.209
17,GACATTCC,0.0456
18,GTTGTGAA,0.0703
19,ACCAAGTA,0.11
20,TCCTCTCA,-0.17
21,GATGGAAA,-0.0898
22,ACGGGAAT,0.147
23,CTATTGTC,0.12
24,ATTTACTA,0.245
25,GTATATGA,0.245

row,Sequence,PBM 8-mer E-score
1,ACGGCAGG,-0.153
2,CTCTCCCA,-0.277
3,GTTGGAGA,-0.0131
4,CCGGATAA,0.0701
5,GGGTTCAA,-0.0571
6,ATTTTTCG,0.179
7,GATGGGGC,-0.215
8,ACCCGCGC,-0.241
9,CGACCTAC,-0.289
10,CCAAACTC,0.0276
11,AACGCTCG,-0.192
12,CCGTACAG,-0.147
13,AAAATCGC,0.0598
14,CGGGGAAC,-0.175
15,GGCCTACA,-0.126
16,GCCCACCC,-0.118
17,CTGGGGTA,0.0191
18,CTGTTCGC,-0.0873
19,GTTACTAA,0.252
20,ATGGCCAT,-0.141
21,AATCGCCT,-0.165
22,ATACCGTA,0.135
23,GGGTCTAA,-0.173
24,GTCGGGTA,-0.152
25,CTTAGATA,0.152

row,Sequence,PBM 8-mer E-score
1,GCGTTAGC,-0.247
2,ACCCGAAG,-0.237
3,CACTTTCC,-0.0236
4,TGTGTAAA,0.188
5,ACCGTAGT,-0.0817
6,ATCATAGG,-0.112
7,AACAATCA,0.205
8,ATGAATTC,0.164
9,AAACCCAA,0.0762
10,CAATCACA,0.0485
11,GTCTGGCA,-0.105
12,AACTTAGG,0.182
13,GACGTTAA,-0.00377
14,TCAACTAA,0.205
15,ACGATAGG,-0.176
16,AGAGTAAC,0.0298
17,CCATACAA,0.0466
18,AAAAATCA,0.0153
19,GTTCAGGA,0.0183
20,CCGAAAAA,0.0426
21,TGTTCAAA,0.123
22,AGGTGTCA,-0.255
23,GGGTGCGA,-0.091
24,CTTAGGAA,-0.0904
25,GAGACGAC,-0.321

row,Sequence,PBM 8-mer E-score
1,CAAATTAC,0.218
2,CTATATCA,0.16
3,GGTGGACA,-0.0734
4,AAATTCGG,0.184
5,ATAGAGTG,0.0326
6,CTTGATTA,0.143
7,ATGACCAG,-0.114
8,AGATGAAC,-0.0155
9,ACGTTCGA,-0.171
10,AAAATGTA,0.206
11,CTTTCATA,0.206
12,AAGCCTCC,-0.309
13,GTGACAAC,-0.0216
14,TAGGGAAA,0.109
15,CTGTGTAA,0.0513
16,AATCATAT,0.244
17,CAGGATAC,0.0289
18,GAAAGACC,-0.188
19,CGACTCTC,-0.224
20,ACGGTTCG,-0.0531
21,GCTAGAGA,-0.188
22,AAAATAGG,0.107
23,CCGGCGCC,-0.254
24,GAGATGAA,-0.165
25,TATCGAGA,0.0936

row,Sequence,PBM 8-mer E-score
1,AGAGCAGG,-0.203
2,GGTAGCCA,-0.126
3,CCCAGGGG,-0.294
4,ACAAGACT,0.0999
5,AAGTTGCG,0.272
6,AATGTTGC,0.16
7,ATAGCAAT,0.206
8,CGGGGTTA,-0.124
9,GGTTGCGA,-0.115
10,AGATTGGC,-0.0202
11,AAGGCCGC,-0.155
12,CCCGCTCC,-0.318
13,CAGGCACG,-0.33
14,GCTAACCA,-0.0732
15,AGCCCTAG,-0.252
16,CGGCTCAA,-0.0692
17,TCACCTCA,-0.163
18,TATTGTAA,0.379
19,GGATTCAC,-0.0735
